# From paper PMC6919601, “Identification of Plasmodium dipeptidyl aminopeptidase allosteric inhibitors by high throughput screening” (PLoS ONE, 2019)
# The campaign covered roughly 110,000 compounds. About 230 (0.21%) showed an effect of 50% or more. The list shows a part of the results.
# Biological target: DPAP1 (Plasmodium falciparum, UniProt Q8IIJ9)
# Assay: primary screen, percent inhibition; read by cleavage of a fluorogenic dipeptide substrate; higher = more effect of the substance
# Design: species or system P. falciparum D10 trophozoite lysates; single well
# 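Further: 30 min substrate incubation versus DMSO and 10 µM JCP410 controls.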
# Sequence of DPAP1 (Q8IIJ9 whole entry, looked up): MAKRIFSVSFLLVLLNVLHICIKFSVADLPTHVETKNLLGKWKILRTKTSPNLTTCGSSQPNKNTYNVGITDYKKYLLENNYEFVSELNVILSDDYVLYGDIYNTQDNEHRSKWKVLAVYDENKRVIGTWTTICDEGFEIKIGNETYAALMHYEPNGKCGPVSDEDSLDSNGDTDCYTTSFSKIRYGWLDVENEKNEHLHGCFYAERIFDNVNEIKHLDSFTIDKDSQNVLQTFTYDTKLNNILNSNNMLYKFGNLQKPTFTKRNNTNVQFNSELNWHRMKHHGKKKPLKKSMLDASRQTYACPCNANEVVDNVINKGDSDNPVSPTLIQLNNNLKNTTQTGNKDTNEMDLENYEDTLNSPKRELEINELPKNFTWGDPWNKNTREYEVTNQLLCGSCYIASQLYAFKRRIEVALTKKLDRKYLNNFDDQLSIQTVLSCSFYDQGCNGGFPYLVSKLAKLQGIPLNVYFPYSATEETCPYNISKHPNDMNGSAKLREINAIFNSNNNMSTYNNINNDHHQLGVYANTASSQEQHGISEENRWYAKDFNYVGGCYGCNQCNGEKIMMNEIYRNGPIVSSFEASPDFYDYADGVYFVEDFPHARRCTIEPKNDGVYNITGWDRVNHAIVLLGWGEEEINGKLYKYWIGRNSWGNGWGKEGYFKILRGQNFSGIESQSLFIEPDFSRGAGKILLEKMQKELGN
row,Structure (SMILES),% Inhibition @ 10 uM [%]
1,O=C(NCc1ccc(F)cc1)c1cc2n(n1)C(C(F)(F)F)CC(c1ccccc1)N2 (centres unmarked),1.03
2,CCOC(=O)c1cnc2nc(-c3ccncc3)nn2c1N,0.895
3,Cc1ccc2nc3c(O)n(CC(=O)Nc4cccnc4)ncc-3c2c1,-2.52
4,Cc1cccc(NC(=O)CN(CCc2ccccc2)S(C)(=O)=O)c1C,-4.39
5,CC1=C(C#N)C(c2ccc(OCc3ccccc3)cc2)C2=C(O)CCCC2=N1 (centres unmarked),0.736
6,O=C1CC(N2CCN(c3ccccc3F)CC2)C(=O)N1c1cccc(C(F)(F)F)c1 (centres unmarked),0.528
7,O=C1Nc2ccc(S(=O)(=O)N3CCCC3C(=O)O)c3cccc1c23 (centres unmarked),1.1
8,CCC(C)c1ccc(NC(=O)c2ccncc2)cc1 (centres unmarked),-3.24
9,Cc1cc(C)cc(CC(C(=O)Nc2ccccc2)C(C)C(=O)O)c1 (centres unmarked),0.635
10,CC1=C(C(=O)OCc2ccccc2)C(c2coc3ccc(Cl)cc3c2=O)C2=C(O)CCCC2=N1 (centres unmarked),-5.03
11,Cc1cc(SCC(=O)O)n2nc(C)c(-c3ccc(Cl)cc3)c2n1,-3.53
12,O=C1CCCC2=C1C(c1cccnc1)Nc1ccc3ncccc3c12 (centres unmarked),4.12
13,Cc1ccc(S(=O)(=O)N(CC(=O)NCc2cccnc2)c2ccccc2)cc1,-6.77
14,O=C(CCCOc1ccc(Br)cc1)Nc1ncc(Cc2ccc(F)cc2)s1,0.685
15,Cc1oc2c(c1C(=O)NCCc1ccccc1)C(=O)c1ccccc1C2=O,-5.41
16,Cc1cc(C)nc(Sc2ncnc3sc(C)c(C)c23)n1,4.83
17,CCOC(=O)N1CCC(NC(=O)CSc2cc(C)nc3c(-c4ccccc4OC)c(C)nn23)CC1,3.29
18,CCn1ncc(Br)c1C(=O)Nc1ccc(C(C)C)cc1,2.92
19,COc1cccc(-c2cc(C(=O)N3CCN(c4ncccn4)CC3)c3ccccc3n2)c1,2.76
20,CN1C(=O)c2ccccc2C(C(=O)Nc2cccnc2Cl)C1c1cccs1 (centres unmarked),-7.02
21,CCOC(=O)c1c(C)c(C(=O)NCc2ccccc2)c(C)n1CC,-1.66

row,Structure (SMILES),% Inhibition @ 10 uM [%]
1,Cc1cccc(-n2cc(-c3ccccc3)c3c(N4CC(C)OC(C)C4)ncnc32)c1 (centres unmarked),0.258
2,Cc1cc(OCC(=O)Nc2ccc(S(=O)(=O)N3CCCCCC3)cc2)ccc1Br,1.83
3,CC(C)C(=O)Nc1ccc(C(=O)c2ccccc2)cc1,-0.884
4,C=CCOc1ccc(C(=O)Nc2ccccn2)cc1,-0.357
5,Cc1sc2ncn(CC(=O)NC3CCCC(C)C3C)c(=O)c2c1S(=O)(=O)N1CCC(C)CC1 (centres unmarked),-4.67
6,Cc1ccc(S(=O)(=O)N(CC(=O)NCc2ccccn2)c2cc(Cl)ccc2C)cc1,-11.1
7,CCOC(=O)c1c(O)oc2ccccc2c1=O,3.22
8,O=c1c2cccnc2n(Cc2ccc(Cl)cc2)c(=O)n1C1CCCCC1,3.32
9,Cc1nnc(N2CCCC(C(=O)NC(C)C)C2)c2nn(-c3ccccc3)c(C)c12 (centres unmarked),1.74
10,CS(=O)(=O)c1nc(S(=O)(=O)c2ccc(Cl)cc2)c(NCc2ccc3c(c2)OCO3)s1,-0.522
11,CCN1C(=O)N/C(=C/c2ccc(-c3cc(C(=O)O)ccc3Cl)o2)C1=O,-5
12,Cc1ccc(CNC(=O)CSc2cn(CC(=O)N3CCC(C)CC3)c3ccccc23)cc1,-3.73
13,N#Cc1cc2c(nc1SCN1C(=O)c3ccccc3C1=O)CCC2,-5.48
14,COc1ccc(CCC(=O)Nc2sc3c(c2C(N)=O)CCC(C)C3)cc1 (centres unmarked),-4.21
15,CC1CC2=Nc3nc4ccccc4n3C(c3cccs3)C2=C(O)C1 (centres unmarked),-7.35
16,O=C1C2C3CCC(C3)C2C(=O)N1C1CCCCC1 (centres unmarked),-6.62
17,CC12CN3CC(C)(CN(C1)C3C(O)C(O)C(O)C(O)CO)C2=O (centres unmarked),0.962
18,Cc1ccccc1NC(=O)c1cc(Cl)c(Cl)cc1C(=O)O,1.52
19,O=c1cc(OCc2ccccc2)c2ccccc2o1,4.12
20,Cc1c2cnn(CC(=O)NC3CCN(Cc4ccccc4)CC3)c(=O)c2c(C)n1Cc1ccccc1,-0.447
21,COc1ccc(C(CC(=O)Nc2nnc(C)s2)c2ccccc2)cc1 (centres unmarked),-4.91

row,Structure (SMILES),% Inhibition @ 10 uM [%]
1,OCC(O)CSc1nc2ccccc2[nH]1 (centres unmarked),-1.59
2,CN1CCN(C(=O)c2cc(-c3ccc4c(c3)OCO4)on2)CC1,0.0221
3,Brc1ccc(-c2cn3nc(C4CCCCC4)sc3n2)cc1,-2.71
4,NS(=O)(=O)c1cccc(S(=O)(=O)c2cccc(S(N)(=O)=O)c2)c1,2.41
5,COc1cc(C(=O)/N=C2\C[N+](C(C)Cc3ccccc3)=NO2)cc(OC)c1OC (centres unmarked),-2.87
6,Cc1c(CN(C)Cc2ccccc2)c(=O)n(-c2ccccc2)n1C,-0.603
7,CC(=O)N1CCc2nc(SCC(=O)NCc3ccc(Cl)cc3)c(C#N)c(C(F)(F)F)c2C1,5.54
8,CCC(C)NC(=O)CS(=O)(=O)Cc1nc(-c2ccc(OC)cc2)oc1C (centres unmarked),-9.55
9,CN(C)c1ccc(/C=C2\CCC/C(=C\c3cccs3)C2=O)cc1,3.96
10,O=C(CN(Cc1ccccc1)S(=O)(=O)c1cc(Cl)ccc1Cl)NC1CCCC1,-3.5
11,CC(C)CCNC(=O)c1ccc2c(c1)ncn2C1CCCC1,-6.88
12,CCCc1[nH]nc2c1C(c1ccccc1OC)C(C#N)=C(N)O2 (centres unmarked),-5.34
13,CC1=C(C#N)C(c2ccc(Cl)c(Cl)c2)C2=C(O)CCCC2=N1 (centres unmarked),1.25
14,Cc1cccc(C(=O)Nc2ccc(S(=O)(=O)N3CCOCC3)cc2C)c1,3.48
15,Cc1cncn1CCc1nc2c3ccccc3nc(S)n2n1,0.4
16,CC(=O)Nc1ccc(CN2CCC(Cc3ccccc3)CC2)cc1,-1.18
17,O=C(Nc1cccc(Br)c1)c1cc2ccccc2oc1=O,-7.42
18,Cc1c(-c2ccco2)[n+]([O-])c2c([n+]1[O-])CCCC2,-3.41
19,CCC(=O)c1c(N2CCOCC2)nc(C)c2c1CCC2,0.163
20,NS(=O)(=O)c1ccc(CCNc2nc3ccccc3c3nc(-c4ccncc4)nn23)cc1,0.981
